Reference: PMC4336329 (PLoS ONE, 2015)
About 2,200 (0.71%) of roughly 310,000 compounds showed an effect of 50% or more. The effect is printed as a negative number. This is one part of the list.

biological target: human ether-à-go-go-related gene (hERG) potassium channel (human, UniProt Q12809); assay: primary screen, population patch clamp on CHO cells stably expressing hERG
Sequence (Q12809 whole entry, looked up): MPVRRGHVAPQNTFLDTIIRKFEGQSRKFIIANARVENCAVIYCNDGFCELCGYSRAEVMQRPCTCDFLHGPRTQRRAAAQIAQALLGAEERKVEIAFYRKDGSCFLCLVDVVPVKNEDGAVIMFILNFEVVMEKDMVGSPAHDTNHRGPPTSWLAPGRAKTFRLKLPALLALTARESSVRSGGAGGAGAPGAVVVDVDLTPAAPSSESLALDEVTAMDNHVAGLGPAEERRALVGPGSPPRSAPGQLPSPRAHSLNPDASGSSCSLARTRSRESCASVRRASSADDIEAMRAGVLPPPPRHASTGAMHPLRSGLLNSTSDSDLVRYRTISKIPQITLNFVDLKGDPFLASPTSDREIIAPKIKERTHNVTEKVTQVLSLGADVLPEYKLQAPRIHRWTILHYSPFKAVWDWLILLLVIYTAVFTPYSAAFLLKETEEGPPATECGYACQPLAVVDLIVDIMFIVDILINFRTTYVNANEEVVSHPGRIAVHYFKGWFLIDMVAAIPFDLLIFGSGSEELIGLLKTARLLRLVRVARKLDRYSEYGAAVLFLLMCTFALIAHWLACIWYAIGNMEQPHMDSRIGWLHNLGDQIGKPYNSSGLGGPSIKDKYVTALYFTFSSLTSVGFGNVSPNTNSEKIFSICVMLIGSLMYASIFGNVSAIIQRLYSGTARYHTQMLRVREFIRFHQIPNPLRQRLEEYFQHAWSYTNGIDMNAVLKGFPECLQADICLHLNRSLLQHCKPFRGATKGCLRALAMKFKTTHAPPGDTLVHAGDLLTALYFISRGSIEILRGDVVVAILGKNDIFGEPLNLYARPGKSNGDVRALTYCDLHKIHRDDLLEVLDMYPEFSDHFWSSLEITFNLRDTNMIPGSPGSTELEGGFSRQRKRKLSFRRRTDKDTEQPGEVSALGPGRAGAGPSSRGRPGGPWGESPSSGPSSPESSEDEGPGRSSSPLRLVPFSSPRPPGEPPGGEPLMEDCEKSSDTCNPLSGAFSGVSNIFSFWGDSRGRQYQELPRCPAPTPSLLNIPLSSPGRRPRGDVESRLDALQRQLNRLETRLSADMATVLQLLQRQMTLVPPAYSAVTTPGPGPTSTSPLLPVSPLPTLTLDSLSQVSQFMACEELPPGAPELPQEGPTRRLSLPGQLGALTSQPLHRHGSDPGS

Row | SMILES | hERG current change (%, negative = inhibition) at 1uM [%]
1 | O=C1Nc2ccccc2/C1=C/c1ccnc2ccccc12 | 8.23
2 | Cc1ccccc1S(=O)(=O)Cc1ccc(C(=O)NCCc2ccccc2)o1 | 15.8
3 | COC(=O)c1c(NC(=O)CC2NCCNC2=O)sc2c1CCCC2 (centres unmarked) | 6.79
4 | COc1ccccc1CCN=C(N)NS(=O)(=O)c1cc(F)ccc1F | 14
5 | Cc1cc(Nc2ccccc2)nc(-c2ccccc2O)n1 | 8.47
6 | O=C(CSc1nc2c(c(=O)n1-c1ccc(Cl)cc1)SCC2)N1CCOCC1 | -0.284
7 | O=[N+]([O-])c1cc(-c2ccc(C(=S)N3CCOCC3)o2)ccc1Cl | 15.4
8 | Cc1ccc(N(CC(=O)NC2CCCC2)C(=O)Cn2nnc(-c3ccccc3F)n2)cc1 | 4.58
9 | COCCCNC(=S)NC1CC2CCCC(C1)N2Cc1ccco1 (centres unmarked) | -1.06
10 | O=C(CSCc1c(Cl)cccc1Cl)N1CCOCC1 | 5.11
11 | CNC(=O)NNC(=O)c1csc(-c2ccc(C(F)(F)F)cc2Cl)n1 | 9.78
12 | COc1cc(C(=O)Nc2nc3ccccc3s2)ccc1OCc1c(C)noc1C | 1.68
13 | Cc1ccc(NC(=O)CN2C(=O)NC3(CCCC3)C2=O)cc1S(=O)(=O)N1CCCCC1 | -0.377
14 | CCOC(=O)N1CCN(CC(=O)n2c(C)c(C)c3ccccc32)CC1.O=C(O)C(=O)O | 11.5
15 | Cc1ccc(S(=O)(=O)N2CCOC2CNC(=O)C(=O)NCc2cccnc2)cc1 (centres unmarked) | 15.5
16 | C/C(Cc1ccccc1)=N\NC(=O)c1ccccn1 | 16.4
17 | CCC1=NN2C(=N)/C(=C\c3cccn3-c3ccc(C)c(C)c3)C(=O)N=C2S1 | 6.59
18 | O=C(Cn1c2c(c(-c3ccccc3Cl)cc1=O)CCC2)NCC1CCCO1 (centres unmarked) | 7.16
19 | CC(OC(=O)C1CC1C)C(=O)Nc1ncc(Cl)cc1Cl (centres unmarked) | 8.07
20 | C/C(CC(=O)Nc1c(C)cc(C)cc1C)=N\NC(=O)OC(C)(C)C | 1.02
21 | Cc1cc(C)n(CCCNC(=O)c2ccc(C)o2)n1 | 10.4
22 | CC(C)(C)SCCNC(=O)CN(c1ccc(F)cc1)S(C)(=O)=O | 8.14

Row | SMILES | hERG current change (%, negative = inhibition) at 1uM [%]
23 | CC(=O)/C(N=Nc1nc2c([nH]1)c(=O)n(C)c(=O)n2C)=C(\C)O | 11.3
24 | CCn1ncc(CNC(=O)CCSc2nc(-c3ccco3)cc(C(F)(F)F)n2)c1C | 5.52
25 | COc1cc(OC)cc(C(=O)NCCn2ccc3ccccc32)c1 | 5.82
26 | CC(C(=O)N1CCc2ccccc21)N1CCN(S(=O)(=O)c2ccc(C(F)(F)F)cc2)CC1 (centres unmarked) | 7.76
27 | COc1ccc(OC)c(NC(=O)CN2C(=O)C(=O)N(Cc3ccccc3)C2=O)c1 | 7.21
28 | CCN(C(=O)C(C)Sc1ccc(S(=O)(=O)N2CCN(C)CC2)cn1)c1ccccc1 (centres unmarked) | -3.06
29 | N=c1c(S(=O)(=O)c2ccccc2)cc2c(=O)n3ccccc3nc2n1C1CCCC1 | 8.93
30 | S=C(NCc1ccco1)N1CCN(c2cccc(Cl)c2)CC1 | 10.3
31 | N#CCCn1nc(-c2ccccc2)c2ccccc2c1=O | -1.49
32 | COc1cc(OC)c(NC(=O)c2ccco2)cc1Cl | -3.85
33 | O=C(COC(=O)C1CCN(S(=O)(=O)c2ccc3c(c2)OCCO3)CC1)Nc1cccc2ccccc12 | 23.3
34 | COc1ccc(-c2nn(-c3ccccc3)cc2/C=N/NC(=O)c2cccc(S(=O)(=O)Nc3ccccc3OC)c2)cc1 | 10.9
35 | COc1ccc(OCC(=O)N2CCc3c([nH]c4ccccc34)C2c2ccccn2)cc1 (centres unmarked) | 23.2
36 | Cc1cc(C(=O)COC(=O)c2cccs2)c(C)n1-c1c(C)n(C)n(-c2ccccc2)c1=O | 13.2
37 | O=C(CN1C(=O)c2ccccc2C1=O)Nc1ccccc1 | 6.76
38 | O=C(Nc1ccc(N2CCOCC2)cc1)C1CCCN(S(=O)(=O)c2ccccc2)C1 (centres unmarked) | 10.1
39 | COc1ccccc1C(=O)Nc1nnc(S(=O)(=O)N2CCC(C)CC2)s1 | 12.4
40 | CCN(CCO)C(=S)Nc1cc(S(=O)(=O)N(C)C)ccc1C | 9.03
41 | N#CCc1ccc(OC(=O)c2cccnc2Cl)cc1 | 9.48
42 | OCc1ccc2c(c1)c(-c1ccc3c(c1)OCCO3)c(-c1ccccc1)n2-c1ccccc1 | 8.01
43 | O=C(c1cccnc1Nc1ccc2c(c1)CCC2)N1CCOCC1 | 0.266
44 | O=C1c2ccccc2CCCC12N=NCC2c1cccc2ccccc12 (centres unmarked) | 13.6

Row | SMILES | hERG current change (%, negative = inhibition) at 1uM [%]
45 | CCCCN(Cc1cc2ccccc2[nH]c1=O)S(=O)(=O)c1ccc(C)cc1 | -3.85
46 | CCc1nc(NCc2ccco2)c2oc3ccccc3c2n1.Cl | 6.18
47 | NC(=O)c1ccc(CN2CCC(Cc3ccccc3)CC2)cc1 | -18.2
48 | Cc1cc(C)c(C)c(S(=O)(=O)NCc2ccc(C(=O)N3CCOCC3)cc2)c1C | 23.1
49 | Cl.O=C(Nc1nc2ccccc2s1)c1ccc2c(c1)OCO2 | -9.95
50 | O=C(Cn1ccc2ccccc2c1=O)NCCC(=O)N1CCN(C(=O)c2ccco2)CC1 | 0.326
51 | Cc1cccc(C(=O)NC2CC3CCCC(C2)N3Cc2ccccc2)c1 (centres unmarked) | -6.63
52 | CS(=O)(=O)N(CC(=O)N1CCOCC1)Cc1ccc(Cl)cc1 | 8.23
53 | Clc1ccc(C[n+]2c(-c3ccccc3)cc(-c3ccccc3)cc2-c2ccccc2)cc1.[O-][Cl+3]([O-])([O-])[O-] | -25.5
54 | CCOC(=O)c1sc(=S)n(-c2ccccc2)c1C | 13.5
55 | Cc1ccc2nc(C)cc(C(=O)OCC(=O)c3ccc(Cl)c([N+](=O)[O-])c3)c2c1 | 7
56 | CCN(CC)S(=O)(=O)c1ccc(C(=O)OCC(=O)Nc2ccc(-c3nc4ccc(C)cc4s3)cc2)cc1 | -1.58
57 | O=C(c1cnn2c1NC(c1ccco1)CC2C(F)(F)F)N1CCN(c2cccc(Cl)c2)CC1 (centres unmarked) | -4.04
58 | Cn1c(/C=C/c2cccc([N+](=O)[O-])c2)c([N+](=O)[O-])c(=O)n(C)c1=O | 4.05
59 | COc1ccc(CSc2nnnn2Cc2ccccc2)cc1OC | -6.92
60 | CCOC(=O)c1c(C)[nH]c(C(=O)OCCOc2ccc(Cl)cc2)c1C | 11.2
61 | O=C(CSCc1ccc(Cl)cc1)N/N=C/c1ccc(Cl)cc1Cl | 5.12
62 | O=C(Nc1ccccc1)c1cccnc1Nc1ccccc1 | 1.67
63 | O=C(CSc1nc(Cc2ccccc2)nc2ccccc12)c1ccc2c(c1)OCCO2 | -0.271
64 | COc1cc(C(=O)c2cocc2C(=O)c2ccc3c(c2)OCO3)cc(OC)c1OC | 7.35
65 | O=c1ccn(-c2cccc(C(F)(F)F)c2)nc1-c1ccn(-c2cccc(Cl)c2)n1 | 4.89
66 | O=C1CN(C(=O)c2ccccc2F)C(c2ccc(F)cc2)c2cc(F)ccc2N1 (centres unmarked) | 11.9

Row | SMILES | hERG current change (%, negative = inhibition) at 1uM [%]
67 | CN(C)c1oc(-c2cccs2)nc1C#N | 9.3
68 | CCC(=NCc1cccnc1)c1c(O)n(Cc2ccccc2)c(=O)[nH]c1=O | -18.9
69 | O=C(OCC(=O)N(CCc1ccccc1)Cc1ccccc1)c1ccccc1[N+](=O)[O-] | 15.8
70 | CCC(C)C1NC(=O)C(C(C)=O)=C1O (centres unmarked) | 2.47
71 | COc1ccc(N2CCN(CC(O)COc3ccc(C)c(C)c3)CC2)cc1.Cl (centres unmarked) | -5.14
72 | O=C(CCN1CCN(c2ccc([N+](=O)[O-])cc2)CC1)c1ccc(Cl)cc1 | -40.5
73 | O=C(O)CCCC(=O)Nc1cccc2cccnc12 | 11.4
74 | CN1CCN(c2ccc(NC(=S)NC(=O)c3cccc4c(Cl)cccc34)cc2)CC1 | 8.78
75 | CSc1ccc(Cl)c(C(=O)NC2CCCC2)c1 | 9.17
76 | O=C(CN1C(=O)C(c2ccccc2)Oc2cccnc21)NCc1ccccc1F (centres unmarked) | 13
77 | COC(=O)c1cccc(NC(=O)CSc2ncn[nH]2)c1 | 4.14
78 | CN(C)Cc1cc(C(C)(C)C)c(O)c(C(C)(C)C)c1 | 5.96
79 | COc1ccc(CCN(Cc2ccccn2)C(=S)Nc2cccc(SC)c2)cc1OC | -24.1
80 | NNC(=O)c1ccc(COc2ccc(Br)cc2)o1 | 11.1
81 | COC(=O)C1=C(COc2ccccc2)NC(=O)NC1c1ccc(Br)cc1 (centres unmarked) | 12
82 | O=C(Nc1cccc(S(=O)(=O)N2CCCC2)c1)c1cc(=O)[nH]c2ccccc12 | 3.03
83 | COc1ccc(CCN2CC(C(=O)Nc3ccc(S(C)(=O)=O)cc3)CC2=O)cc1OC (centres unmarked) | 5.63
84 | O=C(NC1CCS(=O)(=O)C1)OC1CCCCC1 (centres unmarked) | 4.72
85 | CCC(=O)CC(c1ccccc1)c1c([O-])c2ccccc2sc1=O.[Na+] (centres unmarked) | 13.3
86 | CC(C)(C)NC(=O)/C(=C\c1ccco1)NC(=O)c1ccco1 | 13.1
